Assay results as given in the supplement of paper PMC10126150.
Values marked as one replicate rest on one cluster of the flow cell; about a third of the high ones do not repeat.

Test system: ATP
Test: switch fluorescence ratio, 500 uM ATP over buffer (Cy3 cluster intensity, sum of 5 cycles each) (fold (ratio)); higher = stronger signal-on switching upon ATP binding; sequences stand for … in TCGTCGGCAGCGTCAGATGTGTATAAGAGACAGTTTTTTTTTTTTTTTTTTTTTTTTT…TC
Settings: aptamer strand: ATP DNA aptamer (quencher-CACCTGGGGGAGTATTGCGGAGGAAGG + anchor), 100 nM annealed; ATP concentration: 500 uM; one replicate
Outline: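 For every switch-domain sequence, the fluorescence ratio is the mean of per-cluster values, each being summed target-cycle Cy3 intensity over summed buffer-cycle Cy3 intensity. Clusters outside 100-1000 RFU were excluded. On a modified Illumina MiSeq flow-cell, the Cy3-labelled switching-strand clusters were annealed to 100 nM quencher-labelled ATP aptamer, imaged in selection buffer and then after 15 min with 500 uM ATP at 22 °C. Five such cycles were run, with NaOH stripping and re-annealing between them.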
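Note: ATP exposure 15 min at 22 °C before imaging.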

| Sequence | switch fluorescence ratio |
| --- | --- |
| GGGTGTTGTT | 1.01 |
| GGGTTAACCG | 0.985 |
| GGGTTACTGA | 1.03 |
| GGGTTAGGCG | 0.979 |
| GGGTTATACT | 0.988 |
| GGGTTCAGAA | 0.97 |
| GGGTTCCATG | 0.988 |
| GGGTTGCCTA | 1.01 |
| GGGTTGCCTG | 1.02 |
| GGGTTTAC | 1 |
| GGGTTTATAG | 1 |
| GGGTTTCGC | 1.06 |
| GGGTTTGCCA | 1.03 |
| GGGTTTGCCG | 1.13 |
| GGGTTTGGTC | 0.99 |
| GGGTTTTCGC | 0.976 |
| GGGTTTTGT | 0.976 |
| GGTAAAGGTG | 3.43 |
| GGTAAATAAC | 1.03 |
| GGTAACCTTC | 2.4 |
| GGTAACGGGA | 1.01 |
| GGTAACTCGA | 1.01 |
| GGTAACTGCG | 0.98 |
| GGTAATCGCG | 0.974 |
| GGTAATGGTC | 0.972 |
| GGTAATTTAC | 1.03 |

| Sequence | switch fluorescence ratio |
| --- | --- |
| GGTACACGCA | 1.1 |
| GGTACATCAG | 1.03 |
| GGTACATTTG | 1.01 |
| GGTACCTATT | 1.08 |
| GGTACGGTTG | 0.938 |
| GGTACTACGC | 1.14 |
| GGTACTCGGA | 0.955 |
| GGTAG | 0.993 |
| GGTAGACCTG | 0.991 |
| GGTAGACTT | 1.02 |
| GGTAGAGCAC | 1 |
| GGTAGAGGCA | 0.993 |
| GGTAGAGTAG | 1.02 |
| GGTAGATAGA | 0.99 |
| GGTAGCGGGT | 1.03 |
| GGTAGCTAA | 1.3 |
| GGTAGTAAAA | 1.06 |
| GGTAGTTACC | 1.02 |
| GGTAGTTATA | 0.977 |
| GGTAGTTGGG | 1.03 |
| GGTATATGTA | 0.994 |
| GGTATCAATA | 1.04 |
| GGTATCTTTA | 1.01 |
| GGTATTCGTG | 0.983 |
| GGTATTGTTC | 1 |
| GGTATTTCGA | 0.995 |

| Sequence | switch fluorescence ratio |
| --- | --- |
| GGTATTTTCT | 1.02 |
| GGTATTTTT | 0.998 |
| GGTCAATGCA | 0.997 |
| GGTCACGCCA | 1.01 |
| GGTCAGGGCC | 1.03 |
| GGTCAGGGGG | 0.975 |
| GGTCAGTAAT | 0.959 |
| GGTCAGTTAC | 1.09 |
| GGTCATCTGC | 1.09 |
| GGTCATGGCC | 1.03 |
| GGTCATTTGA | 0.998 |
| GGTCCAGGTA | 0.99 |
| GGTCCCGAGC | 1.07 |
| GGTCCCGG | 0.968 |
| GGTCCGGTTG | 1.01 |
| GGTCCTAAGA | 1.01 |
| GGTCCTCAGA | 1.01 |
| GGTCCTTCGG | 1.03 |
| GGTCGAAGAA | 0.998 |
| GGTCGACGTG | 0.938 |
| GGTCGATAGA | 1 |
| GGTCGCGAGG | 1.01 |
| GGTCGCGCTC | 1.01 |
| GGTCGCGGGC | 0.967 |
| GGTCGGATTT | 1.03 |
| GGTCGGGTCC | 1.02 |

| Sequence | switch fluorescence ratio |
| --- | --- |
| GGTCGGTAGC | 0.985 |
| GGTCGTGTAT | 0.982 |
| GGTCTATAGA | 1.03 |
| GGTCTCAAAT | 1.03 |
| GGTCTCACGT | 0.996 |
| GGTCTCTTAG | 0.989 |
| GGTCTGAGAT | 1.01 |
| GGTCTGTTGA | 0.983 |
| GGTCTTCGGC | 1.12 |
| GGTCTTCTCT | 1.01 |
| GGTGAAGATG | 0.928 |
| GGTGACAGCG | 0.996 |
| GGTGACCATT | 0.986 |
| GGTGACTACT | 1.03 |
| GGTGACTGAA | 0.998 |
| GGTGACTTAC | 1.21 |
| GGTGAGCTTT | 0.954 |
| GGTGAGGCTC | 1.01 |
| GGTGAGTCAC | 1.02 |
| GGTGATAGTC | 1.01 |
| GGTGATTCGG | 0.954 |
| GGTGCAAGT | 0.995 |
| GGTGCACTA | 1 |
| GGTGCGCAAG | 1.04 |
| GGTGCGGGTA | 0.997 |
| GGTGCGTACT | 1.01 |

| Sequence | switch fluorescence ratio |
| --- | --- |
| GGTGGACTTT | 0.974 |
| GGTGGAGTTA | 1.03 |
| GGTGGATCGG | 0.989 |
| GGTGGCCTGA | 0.951 |
| GGTGGCTACA | 0.992 |
| GGTGGCTAGG | 0.997 |
| GGTGGGAAAC | 1.05 |
| GGTGGGACGA | 1.03 |
| GGTGGGCGAG | 1.08 |
| GGTGGGGTCA | 1.02 |
| GGTGGGTCCT | 0.987 |
| GGTGGTATGG | 0.984 |
| GGTGGTTATG | 0.962 |
| GGTGGTTTTC | 1.01 |
| GGTGTACTGT | 1.02 |
| GGTGTAGAAT | 1.02 |
| GGTGTAGTGC | 0.97 |
| GGTGTCAGGT | 0.988 |
| GGTGTCTCAT | 0.971 |
| GGTGTGCGGG | 0.997 |
| GGTGTGCTAC | 1.06 |
| GGTGTGGGAG | 1.04 |
| GGTGTGTACA | 0.955 |
| GGTGTTCCGT | 0.946 |
| GGTGTTCGAA | 0.97 |
| GGTGTTTAGT | 1.08 |

| Sequence | switch fluorescence ratio |
| --- | --- |
| GGTGTTTGCC | 0.978 |
| GGTTAAATAC | 1.39 |
| GGTTAACCGT | 0.98 |
| GGTTAAGTTG | 0.987 |
| GGTTACGTGC | 1.06 |
| GGTTACTTAA | 1.02 |
| GGTTAGGATA | 1.02 |
| GGTTAGTTAG | 1.02 |
| GGTTATAGCG | 0.989 |
| GGTTATATGG | 0.98 |
| GGTTCACGCA | 1.08 |
| GGTTCACGGA | 0.976 |
| GGTTCACGTA | 0.969 |
| GGTTCAGAAT | 1.04 |
| GGTTCAGACG | 0.975 |
| GGTTCAGTAT | 1.01 |
| GGTTCCCGGT | 1 |
| GGTTCCGCCT | 1.08 |
| GGTTCCTTAG | 1.03 |
| GGTTCGCGGG | 0.975 |
| GGTTCGGAGA | 0.976 |
| GGTTCGTAAC | 1.01 |
| GGTTCGTAGG | 1 |
| GGTTCTCGTC | 0.989 |
| GGTTCTCTAA | 1.01 |
| GGTTCTTGGA | 0.998 |

| Sequence | switch fluorescence ratio |
| --- | --- |
| GGTTCTTGTC | 0.94 |
| GGTTGACAC | 1.02 |
| GGTTGAGGCA | 1.02 |
| GGTTGATGCT | 0.952 |
| GGTTGCATAG | 0.975 |
| GGTTGCGAGT | 1 |
| GGTTGCGATA | 1.01 |
| GGTTGCGTGC | 0.998 |
| GGTTGCTGA | 0.991 |
| GGTTGGCCAC | 0.962 |
| GGTTGGCCGA | 0.99 |
| GGTTGTCCTG | 1.02 |
| GGTTGTTCTT | 0.977 |
| GGTTGTTTG | 0.957 |
| GGTTTAAGCC | 0.96 |
| GGTTTATCTA | 0.981 |
| GGTTTCACAG | 0.956 |
| GGTTTCGACC | 0.997 |
| GGTTTGACGC | 0.871 |
| GGTTTGATAG | 0.963 |
| GGTTTTCTGC | 0.973 |
| GTAAAACCGC | 1.1 |
| GTAAATAGGG | 0.977 |
| GTAAATCATT | 0.967 |
| GTAAATCGGA | 0.951 |
| GTAAATGTAT | 1 |

| Sequence | switch fluorescence ratio |
| --- | --- |
| GTAACCCGGT | 0.974 |
| GTAACGTAGC | 1.08 |
| GTAACTCGC | 1.04 |
| GTAACTCTCA | 1.03 |
| GTAAGAAGTT | 1.11 |
| GTAAGGACCG | 1.01 |
| GTAAGGACGA | 1.01 |
| GTAAGTGGGG | 1 |
| GTAATATTA | 0.99 |
| GTAATCAGTG | 0.971 |
| GTAATCAGTT | 0.968 |
| GTAATCCGG | 1.01 |
| GTAATGAATC | 0.963 |
| GTAATGACTT | 0.988 |
| GTAATTACGA | 1 |
| GTAATTGGTC | 1.07 |
| GTACAAATCT | 1.02 |
| GTACACCCCA | 1.16 |
| GTACATATTA | 1.05 |
